For orientation: AC50 means the concentration giving half of the maximal activity seen. High values mean activity only at high concentration, low ones activity at low concentration.

Results filed as inconclusive are left out. Certain results were filed several times, with different values. This is not the full list of results. The source may hold further records. The values listed for one entry are repeated measurements (runs, samples, wells, individuals or studies). Records carry a tag for their origin. Letters hold for one entry only.

The values that follow come from PubChem BioAssay AID687005 (Broad Institute, 2013).

The test has as its system HEK293T viability, ATP luminescence (CellTiter-Glo), 48 h. The experiment in a line: HEK293T cell cytotoxicity, dose response, cytotoxicity control, ATP luminescence, cherry-pick samples (AID 687005).

Regarding `COC(=O)C1=C(C)N(Cc2ccc(F)cc2)C(=S)NC1c1cccc(F)c1` (stereo unspecified), the AC50 is 4.4 µM [sample A] and 48.9 µM [sample B].
